Results reported in article PMC4336329 (PLoS ONE, 2015).
About 14,000 (4.5%) of roughly 310,000 compounds showed an effect of 50% or more. The effect is printed as a negative number. This is one part of the list.

Molecular target: human ether-à-go-go-related gene (hERG) potassium channel (human, UniProt Q12809)
Test: primary screen, population patch clamp on CHO cells stably expressing hERG
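Further: peak tail current of the secondary pulse compared with the same well before compound.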

Sequence of human ether-à-go-go-related gene (hERG) potassium channel (Q12809 whole entry, looked up): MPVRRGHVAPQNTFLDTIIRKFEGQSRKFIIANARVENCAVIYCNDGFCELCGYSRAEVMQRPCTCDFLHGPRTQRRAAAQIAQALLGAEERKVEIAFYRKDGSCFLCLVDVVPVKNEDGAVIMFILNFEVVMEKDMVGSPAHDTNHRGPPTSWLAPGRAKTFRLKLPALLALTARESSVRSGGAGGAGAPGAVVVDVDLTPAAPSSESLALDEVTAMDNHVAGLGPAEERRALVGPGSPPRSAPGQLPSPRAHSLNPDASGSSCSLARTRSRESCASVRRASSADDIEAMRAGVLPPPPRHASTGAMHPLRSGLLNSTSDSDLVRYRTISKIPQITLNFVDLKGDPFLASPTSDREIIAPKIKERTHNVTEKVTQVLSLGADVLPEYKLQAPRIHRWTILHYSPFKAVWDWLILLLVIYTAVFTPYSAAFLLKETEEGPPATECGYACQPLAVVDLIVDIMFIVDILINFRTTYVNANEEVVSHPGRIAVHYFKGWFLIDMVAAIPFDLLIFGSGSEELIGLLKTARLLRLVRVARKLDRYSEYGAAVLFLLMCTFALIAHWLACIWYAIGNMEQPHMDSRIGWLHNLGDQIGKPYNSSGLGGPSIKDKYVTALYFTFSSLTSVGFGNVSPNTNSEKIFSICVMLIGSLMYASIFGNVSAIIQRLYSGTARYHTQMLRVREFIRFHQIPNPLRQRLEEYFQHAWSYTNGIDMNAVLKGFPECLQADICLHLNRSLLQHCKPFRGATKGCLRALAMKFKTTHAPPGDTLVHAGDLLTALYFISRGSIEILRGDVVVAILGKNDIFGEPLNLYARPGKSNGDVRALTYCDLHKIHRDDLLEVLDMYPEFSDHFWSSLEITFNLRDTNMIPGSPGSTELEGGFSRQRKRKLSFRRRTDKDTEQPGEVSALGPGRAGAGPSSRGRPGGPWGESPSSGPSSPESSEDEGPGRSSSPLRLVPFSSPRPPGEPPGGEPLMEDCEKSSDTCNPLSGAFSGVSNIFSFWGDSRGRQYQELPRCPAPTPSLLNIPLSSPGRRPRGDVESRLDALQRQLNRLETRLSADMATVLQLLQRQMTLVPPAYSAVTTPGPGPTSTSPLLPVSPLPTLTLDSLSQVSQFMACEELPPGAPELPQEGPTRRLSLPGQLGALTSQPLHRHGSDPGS

SMILES | hERG current change (%, negative = inhibition) at 10uM
Cc1cccc(-c2nc3ccccc3c(=O)n2N)c1 | 21.8%
CC(C)OCCCNC(=O)C1CCC(=O)N1C1CCCC1 (stereo not shown) | -0.203%
CCCCCc1nnc(NC(=O)C(=O)OCC)s1 | -5.92%
Cc1cccc(NC(=O)CSc2n[nH]c(-c3ccncc3)n2)c1C | 12.5%
O=C(NC(=S)Nc1ccc(NC(=O)c2cccs2)cc1)c1ccco1 | 2.77%
CC(=O)c1cn(CCOc2ccccc2C)c2ccccc12 | 25.8%
COc1cccc(C(=O)c2c(C)c(CCC#N)n3ccccc23)c1OC | 18.8%
CC(C)CCOc1ccc(-c2c(=O)n(OCc3ccc([N+](=O)[O-])cc3)c3ccccc3[n+]2[O-])cc1 | 32.5%
O=C(OCc1ccccc1)c1ccc2c(c1)-c1ccccc1C2=O | -3.76%
O=C(NCc1ccco1)/C(=C\c1ccc(F)cc1)NC(=O)c1ccco1 | 4.27%
Cn1cccc1C(C#N)(CC#N)c1cccc(F)c1C#N (stereo not shown) | -2.9%
Cc1cc(C)n(C(=O)CNC(=O)c2ccccc2F)n1 | 11.2%
Cc1ccc(CNC(=O)[C@H](Cc2ccccc2)NC(=O)c2ccco2)cc1 | -10.1%
O=C(NCC(c1ccco1)N1CCOCC1)c1ccc([N+](=O)[O-])cc1 (stereo not shown) | -5.83%
CCCCc1cc(=O)oc2c(CN3CCN(C)CC3)c(O)ccc12 | -6.07%
COC(=O)C(NC(=O)c1ccccc1C(=O)O)c1ccc2ccccc2c1 (stereo not shown) | 17.9%
COC(=O)CCC(=O)NNC(=O)Cc1ccccc1 | 30.4%
CC(=O)Nc1ccc(NC(=O)C(=O)NCC(c2ccco2)N2CCc3ccccc3C2)cc1 (stereo not shown) | -14%
CCOc1ccc(OCc2cccc(C(=O)Nc3ccc(CN4CCCCC4)cc3)c2)cc1 | -63.2%
O=C(NCc1ccccc1Cl)C1CCN(S(=O)(=O)N2CCC3(CC2)OCCO3)CC1 | -7.14%
Cn1c(=O)c2c(nc(N3CCCCCC3)n2CCSc2nc3ccccc3o2)n(C)c1=O | -19.9%
Cc1cc(S(=O)(=O)Nc2ccc(C(=O)NCC(c3ccco3)N3CCCC3)cc2)ccc1F (stereo not shown) | -50.6%

SMILES | hERG current change (%, negative = inhibition) at 10uM
O=C(/C=C/c1cn(-c2ccccc2)nc1-c1cccnc1)N1CCCCC1 | -49.7%
CCOC(=O)CCNCc1ccc(OC)c(OC)c1.Cl | 11.1%
CN1CCN(c2ccc(NC(=O)c3ccc(Cl)cc3Cl)cc2)CC1 | -23.4%
CCN(C(=O)CN1C(=O)S/C(=C\c2cccc(Cl)c2)C1=O)C1CCS(=O)(=O)C1 (stereo not shown) | 3.29%
N#Cc1cc(-c2ccccc2)nc(Oc2ccccc2)n1 | -1.24%
Oc1cccc(Nc2nc(-c3ccccc3)nc3ccccc23)c1 | 9.56%
CCC(=O)c1ccc(OCC(=O)OCC(=O)NCc2cccs2)cc1 | -18.1%
O=C(COC(=O)COc1ccc(Cl)cc1)Nc1ccc(F)c([N+](=O)[O-])c1 | -2.51%
Cn1cc(Br)c(C(=O)Nc2sc3c(c2C(N)=O)CCC3)n1 | 18.4%
CCOC(=O)CSc1nnc(CNC(=O)c2ccc(S(=O)(=O)N3CCOCC3)cc2)n1C | 10.7%
CCOc1ccccc1N1CCN(C(=O)Nc2ccc(Cl)c(Cl)c2)CC1 | 3.99%
OCc1nnc2c3ccccc3c(-c3ccccc3)nn12 | -4.77%
CCc1ccccc1NNC(=O)c1cc(C)on1 | 10.6%
O=C(c1ccc(Cl)cc1)N(Cc1ccc(Br)cc1)N1C(=O)CCC1=O | -43.4%
CCOCCCNC(=O)/C(C#N)=C/c1ccc(-c2ccc(S(=O)(=O)N3CCOCC3)cc2)o1 | -19%
O=C(Cc1ccccc1Cl)N1CCOCC1 | 10%
CCOC(=O)N1CCC(NC(=O)c2cnn3c(C(F)(F)F)cc(-c4cccc(OC)c4)nc23)CC1 | -42.2%
C=CCNc1nc(C)nc(OC)n1 | 13.8%
Cc1cccc(N2CC(C(=O)Nc3nnc(SCc4ccccn4)s3)CC2=O)c1 (stereo not shown) | -12.8%
N=c1c(C(=O)NCC2CCCO2)cc2c(=O)n3ccccc3nc2n1Cc1ccc(F)cc1 (stereo not shown) | -80%
O=C(CSc1nc2ccccc2s1)N1c2ccccc2Sc2ccc(Cl)cc21 | 9.72%
CC(=O)N1CCc2cc(S(=O)(=O)NCC(=O)NCc3ccc(F)cc3)ccc21 | 14.9%

SMILES | hERG current change (%, negative = inhibition) at 10uM
CCN(CC)S(=O)(=O)c1ccc(NC(=O)CC(NC(C)=O)c2ccccc2)cc1 (stereo not shown) | 0.997%
CCN(CC)c1ccc(NC(=O)c2cncc(Br)c2)cc1 | -14%
Cl.OC(CN1CCOCC1)c1csc2ccccc12 (stereo not shown) | 9.76%
c1ccc(Cn2ccnc2-c2ccco2)cc1 | -4.16%
Cc1cc(NC(=O)NN2CCOCC2)nn1-c1c(Cl)cc(Cl)cc1Cl | 4.9%
O=C(N/N=C\c1cc([N+](=O)[O-])ccc1N1CCOCC1)c1ccccn1 | -1.46%
c1cn2cc(-c3ccc4c(c3)OCO4)nc2s1 | 8.01%
Cc1ccc(N(C(=O)Cn2nnc(-c3ccc(C)o3)n2)C(C(=O)NC2CCCC2)c2ccncc2)cc1 (stereo not shown) | -22.3%
O=C(c1ccc(Cl)c([N+](=O)[O-])c1)N(Cc1ccco1)C1CCS(=O)(=O)C1 (stereo not shown) | -2.87%
COCCNC(=O)c1ccccc1NS(=O)(=O)c1ccc(C)c([N+](=O)[O-])c1 | 17.6%
CS(=O)(=O)N1CCN=C1SCc1ccc(Br)cc1 | 6.08%
COc1ccccc1N(CC(=O)Nc1ccc(C(F)(F)F)cc1)S(C)(=O)=O | -7.17%
COc1ccc(-c2c(NCCc3ccccc3)c(=O)c2=O)cc1 | 21.5%
COc1ccc(CNC(=O)CCN2C(=O)c3ccccc3C2=O)cc1 | -10.8%
O=C(CNS(=O)(=O)c1cccc2nonc12)NCc1ccc(F)cc1 | -4.96%
CC(C)n1ncc2c(C(=O)N3CCN(c4ccc(F)cc4)CC3)cc(-c3ccccc3)nc21 | -13.5%
COC(=O)C1=C(c2ccc(-c3ccccc3)c(F)c2)C[C@@H]2CC[C@H]1N2C(=O)N1CCOCC1 | -19.3%
COc1ccc(NC(=O)c2oc3ccccc3c2NC(=O)C2CCCO2)cc1OC (stereo not shown) | -17.8%
Cc1onc(-c2ccccc2)c1C(=O)Nc1sc2c(c1C(N)=O)CCC2 | 6.44%
O=C(Nc1nccs1)c1cccc(S(=O)(=O)N2CCCCC2)c1 | -26.2%
COc1ccc(NC(=O)n2nc(OC(=O)c3cccs3)cc2N)cc1 | 12.3%
COc1cc2nc(Nc3ccc(C)c(Cl)c3)nc(N)c2cc1OC.Cl | 4.1%

SMILES | hERG current change (%, negative = inhibition) at 10uM
Cc1sc2c(c1C)C(c1ccc(C(C)(C)C)cc1)=NCC(=O)N2CC(=O)Nc1nccs1 | -17.9%
O=C(c1ccc(Cl)c(S(=O)(=O)N2CCCC2)c1)N1CCN(c2ncccn2)CC1 | -4.2%
Cc1[nH]n(-c2ccccc2)c(=O)c1N=Nc1nccs1 | 11.2%
Clc1nn2cnnc2c2ccccc12 | 8.76%
Cc1c2c(nc3ccccc13)CCC(C(C)(C)C)C2.Cl (stereo not shown) | -6.8%
CC(C)C(=O)Nc1nnc(S(=O)(=O)N2CCc3ccccc32)s1 | -3.87%
N#C/C=C(/N)c1ccc(Br)cc1 | 7.26%
CNC(=S)NNc1ccccc1[N+](=O)[O-] | 13.7%
COc1ccccc1NC(=O)CN1CCN(CC(=O)Nc2ccc(S(N)(=O)=O)cc2)CC1 | -27.8%
COc1ccc(Cn2cc3c(-c4ccc(F)cc4)nnc-3c3cc(OC)c(OC)cc32)cc1 | -88.2%
COc1cccc(NC(=O)CCC2CCN(Cc3nccs3)CC2)c1 | -2.63%
COc1ccc2cc(C(=O)Nc3ccccc3)sc(=O)c2c1OC | 29.7%
CCN1C/C(=C/c2cccs2)c2nc3ccccc3c(C(=O)O)c2C1 | 1.33%
CC1CCC(NC(=O)Cn2c(=O)oc3ccccc32)CC1 (stereo not shown) | 11.8%
C#CCOC(=O)CCCC(=O)Nc1ccccc1OC | 9.09%
COC(=O)Cn1cc(C(=O)C2CC2)c2ccccc21 | 2.2%
C/C(CC(=O)Nc1ccc2ccccc2c1)=N\NC(=O)c1cnccn1 | -4.24%
CCN(C(=O)CSc1nccn1C)c1cccc2ccccc12 | -7.15%
COC(=O)C1=C(C(=O)OC)[C@@H]2N(C)c3ccc(OC)cc3[C@@]23C[C@@H](C(=O)OC)N(C(=O)c2cc(C)oc2C)C3=N1 | -43.5%
COc1ccc(C(=O)c2c(C)oc3ccc(O)cc23)cc1 | 4.6%
Cc1ccc(NC(=O)CCNS(=O)(=O)c2ccc3c(c2)oc(=O)n3C)cc1C | -8.38%
Cn1c(SCCC#N)nnc1-c1ccccc1F | 7.17%
